Test results: PMC9359557, “Discovery of a novel natural product inhibitor of Clostridioides difficile with potent activity in vitro and in vivo” (PLoS ONE, 2022)

What was measured:
C. difficile [1] = experiment: In vitro susceptibility assay (MIC); conditions: for MIC: Clostridioides difficile
[2] = test system: toxins (tcdA and tcdB) of C. difficile ATCC BAA 1870; experiment: Toxin inhibition assay (ELISA); assay type: cell-based, Clostridioides difficile
[3] = test system: C. difficile ATCC BAA 1870; experiment: Time-kill kinetics study; conditions: 5 × MIC
C. difficile [4] = experiment: Minimum bactericidal concentration (MBC) assay; conditions: Clostridioides difficile
[5] = test system: C. difficile (ATCC 43255); experiment: Murine model of CDI; assay type: in vivo, C57BL/6 mice; conditions: oral gavage daily for 5 days, n = 5
[6] = C. difficile Isolate 20100502, NR-49277
[7] = C. difficile Isolate 20110999, NR-49286
[8] = C. difficile Isolate 20120187, NR-49290
[9] = starting inoculum 3.5 × 10^6 cfu/ml
[10] = C. difficile Isolate 20100207, NR-49278
[11] = C. difficile Isolate 20110870, NR-49288

Compound | MIC (C. difficile [1]; C. difficile I2, NR-13428) [µg/mL] | MIC (C. difficile [1]; C. difficile I4, NR-13430) [µg/mL] | MIC (C. difficile [1]; C. difficile I6, NR-13432) [µg/mL] | MIC (C. difficile [1]; C. difficile I13, NR-13553) [µg/mL] | MIC (C. difficile [1]; [6]) [µg/mL] | MIC (C. difficile [1]; [7]) [µg/mL] | MIC (C. difficile [1]; [8]) [µg/mL] | MIC (C. difficile [1]; C. difficile P7, NR-32887) [µg/mL] | MIC (C. difficile [1]; C. difficile P9, NR-32889) [µg/mL] | reduction of toxin production ([2]; 0.25 × MIC) | MBC (C. difficile [4]; C. difficile I2, NR-13428) [µg/mL] | MBC (C. difficile [4]; C. difficile I4, NR-13430) [µg/mL] | MBC (C. difficile [4]; C. difficile I6, NR-13432) [µg/mL] | MBC (C. difficile [4]; C. difficile I13, NR-13553) [µg/mL] | MBC (C. difficile [4]; [6]) [µg/mL] | MBC (C. difficile [4]; [7]) [µg/mL] | MBC (C. difficile [4]; [8]) [µg/mL] | MBC (C. difficile [4]; C. difficile P7, NR-32887) [µg/mL] | MBC (C. difficile [4]; C. difficile P9, NR-32889) [µg/mL] | MBC (C. difficile [4]; C. difficile P30, NR-32904) [µg/mL] | also measured
CCc1c(Cl)c(O)c(Cl)c(O)c1C(=O)O[C@H]1[C@H](O)[C@H](OC)[C@H](OC/C2=C\C=C\C[C@H](O)/C(C)=C/[C@H](CC)[C@@H](O[C@@H]3OC(C)(C)[C@@H](OC(=O)C(C)C)[C@H](O)[C@@H]3O)/C(C)=C/C(C)=C/C[C@@H]([C@@H](C)O)OC2=O)O[C@@H]1C [Fidaxomicin] | 0.03 (≈ 0.0284 µM) | 0.015 (≈ 0.0142 µM) | 0.06 (≈ 0.0567 µM) | 0.03 (≈ 0.0284 µM) | 0.06 (≈ 0.0567 µM) | 0.25 (≈ 0.236 µM) | 0.06 (≈ 0.0567 µM) | 0.03 (≈ 0.0284 µM) | 0.03 (≈ 0.0284 µM) | ~36% | 0.03 (≈ 0.0284 µM) | 0.015 (≈ 0.0142 µM) | 0.06 (≈ 0.0567 µM) | 0.03 (≈ 0.0284 µM) | 0.06 (≈ 0.0567 µM) | 0.25 (≈ 0.236 µM) | 0.06 (≈ 0.0567 µM) | 0.03 (≈ 0.0284 µM) | 0.03 (≈ 0.0284 µM) | 0.06 (≈ 0.0567 µM) | MIC (C. difficile [1]; C. difficile P6, NR-32886): 0.03 µg/mL (≈ 0.0284 µM); MIC (C. difficile [1]; C. difficile P19, NR-32895): 0.03 µg/mL (≈ 0.0284 µM); MIC (C. difficile [1]; C. difficile P30, NR-32904): 0.06 µg/mL (≈ 0.0567 µM); reduction of toxin production ([2]; 0.5 × MIC): ~57%; time to bactericidal activity (≥ -3log10 CFU/ml reduction in bacterial viability) [3, 9]: ≤ 8 h; MBC (C. difficile [4]; C. difficile P6, NR-32886): 0.03 µg/mL (≈ 0.0284 µM)
CO[C@H]1[C@H](O)C[C@@H](O[C@@H]2C[C@H](Oc3cc4cc5c(c(O)c4c(O)c3C)C(=O)[C@@H](O[C@H]3C[C@H](O[C@H]4C[C@H](O[C@H]6C[C@@](C)(O)[C@@H](OC(=O)C(C)C)[C@H](C)O6)[C@H](O)[C@@H](C)O4)[C@H](O)[C@@H](C)O3)[C@H]([C@H](OC)C(=O)[C@@H](O)[C@@H](C)O)C5)O[C@H](C)[C@H]2OC(C)=O)O[C@@H]1C [NP-003875] | – | – | – | – | – | – | – | – | – | ~29% | 0.03 (≈ 0.0248 µM) | 0.03 (≈ 0.0248 µM) | 0.03 (≈ 0.0248 µM) | 0.03 (≈ 0.0248 µM) | 0.03 (≈ 0.0248 µM) | 0.03 (≈ 0.0248 µM) | 0.03 (≈ 0.0248 µM) | 0.03 (≈ 0.0248 µM) | 0.015 (≈ 0.0124 µM) | 0.015 (≈ 0.0124 µM) | fold lower MIC90 value compared to that of fidaxomicin (C. difficile [1]): 3 fold; reduction of toxin production ([2]; 0.5 × MIC): ~40%; killing kinetics compared to fidaxomicin ([3]; in words): comparable to that of fidaxomicin; time of exposure to reduce cell viability below the limit of detection (LOD) [3, 9]: ≤ 8 h; protection of infected mice (survival) ([5]; 5 mg/kg): 100%; MBC (C. difficile [4]; [10]): 0.06 µg/mL (≈ 0.0495 µM); MBC (C. difficile [4]; [11]): 0.03 µg/mL (≈ 0.0248 µM); MBC (C. difficile [4]; C. difficile P6, NR-32886): 0.03 µg/mL (≈ 0.0248 µM); MBC (C. difficile [4]; C. difficile P19, NR-32895): 0.015 µg/mL (≈ 0.0124 µM)
CN[C@H](CC(C)C)C(=O)N[C@H]1C(=O)N[C@@H](CC(N)=O)C(=O)N[C@H]2C(=O)N[C@H]3C(=O)N[C@H](C(=O)N[C@H](C(=O)O)c4cc(O)cc(O)c4-c4cc3ccc4O)[C@H](O)c3ccc(c(Cl)c3)Oc3cc2cc(c3O[C@@H]2O[C@H](CO)[C@@H](O)[C@H](O)[C@H]2O[C@H]2C[C@](C)(N)[C@H](O)[C@H](C)O2)Oc2ccc(cc2Cl)[C@H]1O [Vancomycin] | 1 (≈ 0.69 µM) | 1 (≈ 0.69 µM) | 0.25 (≈ 0.173 µM) | 0.25 (≈ 0.173 µM) | 0.25 (≈ 0.173 µM) | 0.25 (≈ 0.173 µM) | 1 (≈ 0.69 µM) | 0.5 (≈ 0.345 µM) | 1 (≈ 0.69 µM) | did not reduce toxin production | 1 (≈ 0.69 µM) | 1 (≈ 0.69 µM) | 0.25 (≈ 0.173 µM) | 0.25 (≈ 0.173 µM) | 0.25 (≈ 0.173 µM) | 0.25 (≈ 0.173 µM) | 1 (≈ 0.69 µM) | 0.5 (≈ 0.345 µM) | 1 (≈ 0.69 µM) | 0.25 (≈ 0.173 µM) | MIC (C. difficile [1]; [10]): 0.25 µg/mL (≈ 0.173 µM); MIC (C. difficile [1]; [11]): 1 µg/mL (≈ 0.69 µM); MIC (C. difficile [1]; C. difficile P19, NR-32895): 1 µg/mL (≈ 0.69 µM); MIC (C. difficile [1]; C. difficile P30, NR-32904): 0.25 µg/mL (≈ 0.173 µM); reduction in bacterial count by 24 h ([3]; 24 h, starting inoculum 3.5 × 10^6 cfu/ml): ~ 2.75 log10 CFU/ml; protection of infected mice (survival) ([5]; 10 mg/kg): ~100%; MBC (C. difficile [4]; [10]): 0.5 µg/mL (≈ 0.345 µM); MBC (C. difficile [4]; [11]): 1 µg/mL (≈ 0.69 µM); MBC (C. difficile [4]; C. difficile P19, NR-32895): 2 µg/mL (≈ 1.38 µM)

Converted amounts (≈) assume the structure as drawn.
